The list shows a part of the results.

This test has as its system PF3D7_0420300 AP2 domain 1 (GST-tagged). Nature of the test: gcPBM binding intensity (ln(normalized median fluorescence intensity)); higher = stronger DNA binding. In outline: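 Probes on an Agilent 4 × 180k array were primer-extended, double-stranded and 36 bp long, taken from intergenic genomic regions, with negative controls added. GST-tagged P. falciparum DNA-binding domains from E. coli, about 25 μg on average, were applied to the array for 1 h in 1× PBS containing 1% milk, 0.2 mg/ml BSA, 0.5% salmon testes DNA and 0.03% Triton X-100. Binding intensity, obtained after Alexa488 anti-GST antibody detection and a 488 nm scan, is the highest Masliner-normalised natural-log median intensity across replicate spots of either probe orientation.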
On to “TCGAATTTGGAAAGAAGTACATGAAGCCAACATATG [XGTACX_site5222]”, for which the “gcPBM binding intensity (ln)” value turned out to be 9.35.

Regarding “AATAAATAAAAATTATGTACATATATAAAAAATACA [XGTACX_site8581]”, the “gcPBM binding intensity (ln)” value was 9.46.

Regarding “AAAACATACCTATATACACACATATAAATATAAATA [CACACA_site6956]”, the “gcPBM binding intensity (ln)” value was 9.71.

“TTTGATATAGAAAGAGCATGCAAGTTAGATAAAATA [TGCATGCA_site470]”: the “gcPBM binding intensity (ln)” value was determined as 9.25.

On to “TATATATTAATATACACACACACATATATATATATA [CACACA_site1608]”, for which the “gcPBM binding intensity (ln)” value worked out at 9.81.

As to “AATAAATTATTATGTACACACATAATAGTATATATA [CACACA_site1820]”, the “gcPBM binding intensity (ln)” value came out at 9.41.

“CAGTTAATGTTGGTACTTTATATAAAAATGATATGA [CACACA_negctrl_site1600]”: the “gcPBM binding intensity (ln)” value was 9.08.

Take “ATAACAACATTTGATAAACACACAGAAGTATAAATA [CACACA_site8739]”: the “gcPBM binding intensity (ln)” value turned out to be 9.64.

On to “TCTTTCTCTCTTCAAAGTACATATAATATATACTTC [XGTACX_site7982]”, for which the “gcPBM binding intensity (ln)” value was found to be 9.17.

With “TTATTAATATTGCATGCACACTATATAATAATTGAA [CACACA_site8258]”, the “gcPBM binding intensity (ln)” value was determined as 9.14.

Regarding “AAAATATAGTTATCAATATATAATATTTTTTTTTTA [CACACA_negctrl_site459]”, the “gcPBM binding intensity (ln)” value is 8.91.

In the case of “TATAAATAGGCATATACACACTTTTAATATTCATAA [CACACA_site6123]”, the “gcPBM binding intensity (ln)” value came out at 9.3.

As for “GTATTTTTAAATGACACACACATATATATATATATA [CACACA_site1662]”, the “gcPBM binding intensity (ln)” value amounted to 9.56.

Regarding “TTTGAACGAAAATACTCACACATATTTATAAACATT [CACACA_site5182]”, the “gcPBM binding intensity (ln)” value came out at 9.22.

On to “ATTTTTCATATATATATATTAATATATATATATTAA [CACACA_negctrl_site1681]”, for which the “gcPBM binding intensity (ln)” value is 9.05.

“AAAAATATATTATATGTACACACAAAATTAAGGGAT [CACACA_site8384]”: the “gcPBM binding intensity (ln)” value stood at 9.84.

As to “TGAATATTTATACATGCACACTAAAATAAAGAATCT [CACACA_site5351]”, the “gcPBM binding intensity (ln)” value was 9.44.

Turning to “AAAATTTCTTTTTTTTGTACATATATAATAATATAT [XGTACX_site7107]”, the “gcPBM binding intensity (ln)” value worked out at 8.92.

On to “ATTATATATACATAATGTACATATATATATTACCTT [XGTACX_site7624]”, for which the “gcPBM binding intensity (ln)” value turned out to be 9.34.

With “TATAAAATGACTATATATAATATTAAAAAAAAAAAA [TGCATGCA_negctrl_site387]”, the “gcPBM binding intensity (ln)” value worked out at 9.11.

Take “AAAAAAAAAAAAAATTCACACACATATAAAAAATTA [CACACA_site8140]”: the “gcPBM binding intensity (ln)” value turned out to be 9.64.

In the case of “TAAATTAAGAATTTTACACACATTAAATAAAAAAAA [CACACA_site3638]”, the “gcPBM binding intensity (ln)” value was 9.39.

Consider “TTTTTTTATTTTTTTATAAATGTATTTCTATTATTT [CACACA_negctrl_site1562]”, for which the “gcPBM binding intensity (ln)” value worked out at 9.3.

“AAATTAGGAAATTGCACACAAAAAAAAACATATTAT [CACACA_site4074]”: the “gcPBM binding intensity (ln)” value amounted to 9.62.
